Measurements published in PubChem BioAssay AID504466 (National Center for Advancing Translational Sciences (NCATS), 2011).
Among all 330,000 compounds or so, about 4,200 (1.3%) were called active. The shares of active, inactive and inconclusive entries below differ from those in the screen. Calls follow the shape of the dose curve; as a rule, active = well fitted activation curve with a large enough effect; inconclusive = small, poorly fitted or top-dose-only effect; inactive = no such curve, though single readings can be large or run the other way. Potencies of inconclusive entries are doubtful fits and often do not repeat.

Test: qHTS screen for small molecules that induce genotoxicity in human embryonic kidney (HEK293T) cells expressing luciferase-tagged ELG1; also: nearly all actives have a fitted effect of over 60% in size
Settings: HEK293T ELG1-luciferase reporter, luminescence, 16 h; series mostly up to 46 µM
How it was run: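 Reporter readout depends on ELG1 protein level, which increases with genetic stress. After 16 hr compound exposure at 37 °C, luciferase activity was quantified using ONE-Glo.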
Potency is read from the fitted curve at half-maximal effect; tags tell the direction and shape of the fitted curve.

| SMILES | Potency |
| --- | --- |
| COc1ccc(NC(=O)CC(c2ccc(F)cc2)c2ccc(OC(C)C)cc2)cc1 (stereo not drawn) | inactive |
| CCN(CCCNC(=O)CN1C(=O)COc2ccc(S(=O)(=O)N3CCC(C)CC3)cc21)Cc1ccccc1 | inactive |
| N#CC(=C1CCCC1)c1nc(-c2ccccc2O)cs1 | active: 3.66 µM |
| N#CCSc1nc2[nH]ncc2c(=O)n1-c1ccccc1Br | inconclusive: 0.184 µM [activator, full curve] |
| O=C(Nc1cccnc1Cl)c1cc(-c2ccccc2O)on1 | inconclusive: 3.26 µM [activator, partial curve, poor fit] |
| COc1ccc(C(=O)NCCCNC(=O)c2cccnc2)cc1OC | inactive |
| O=C(Nc1ccc2ccccc2c1)c1cc(F)c(F)cc1Cl | inconclusive: 3.66 µM [activator, full curve] |
| CC(=O)Nc1ccc(S(=O)(=O)N2CCC(C(=O)Nc3nccs3)CC2)cc1 | inactive |
| O=C(Nc1cnccn1)c1csc2ccccc12 | inconclusive: 14.6 µM [activator, partial curve] |
| COc1ccccc1/C=C/C=N/n1c(-c2ccccn2)n[nH]c1=S | inconclusive: 16.4 µM [activator, partial curve, poor fit] |
| Cc1ccc(OC(=O)c2cccc([N+](=O)[O-])c2)c(-n2nc3ccccc3n2)c1 | inconclusive: 9.2 µM [activator, partial curve] |
| Cc1ccc(NC(=O)c2ccc(OCC3CCCO3)cc2)cc1 (stereo not drawn) | inconclusive: 8.2 µM [activator, partial curve] |
| COc1ccc(NC(=O)Cc2ccc(Cl)cc2)cc1S(=O)(=O)N1CCCCC1 | inactive |
| CC(=O)Nc1ccc(/C=N/Nc2nc3ccccc3s2)cc1 | active: 2.59 µM |
| Clc1ccc2oc(-c3ccccn3)nc2c1 | inconclusive: 4.61 µM [activator, partial curve] |
| Cc1cc(C(=O)CN2CCC(C)CC2)c(C)n1-c1ccc(F)cc1 | inconclusive: 8.2 µM [activator, partial curve] |
| CCC(C)c1ccccc1NC(=S)NC(=O)c1ccco1 (stereo not drawn) | inactive |
| c1ccc(COc2ccc(OCCCCN3CCCCC3)cc2)cc1 | inconclusive: 18.4 µM [activator, single point] |
| C=C(C)Cn1cnc2c(oc3nc4c(cc32)CCCC4)c1=O | inconclusive: 14.6 µM [activator, partial curve] |
| Cc1ccc(CNC(=O)CSc2ccsc2[N+](=O)[O-])cc1 | inconclusive: 14.6 µM [activator, partial curve] |
| O=C(CSc1nc2[nH]ncc2c(=O)n1-c1ccccc1Br)NCc1ccccc1Cl | inactive |
| CCCCCn1cnc2sc(CC)cc2c1=O | inconclusive: 9.2 µM [activator, partial curve] |
| O=c1oc(-c2ccccc2F)nc2scc(-c3ccccc3)c12 | inconclusive: 23.1 µM [activator, partial curve, poor fit] |
| O=C(NC1CCCCC1)C(c1cccnc1)N(C(=O)CCl)c1cccc(Cl)c1 (stereo not drawn) | inactive |
| Cc1c(-c2ccccc2)n[nH]c1C(=O)N=Nc1c(O)[nH]c2ccccc12 | inconclusive: 20.6 µM [activator, partial curve, poor fit] |

| SMILES | Potency |
| --- | --- |
| CSc1cccc(-n2cc(-c3ccc4c(c3)OCO4)[nH]c2=O)c1 | inconclusive: 20.6 µM [activator, partial curve, poor fit] |
| CCCc1nnc(NC(=O)c2cccs2)s1 | inconclusive: 18.4 µM [activator, partial curve, poor fit] |
| CC(=O)Nc1cccc(-c2csc(Nc3cccc(C)n3)n2)c1 | inconclusive: 1.84 µM [activator, partial curve] |
| Cc1ccc(S(=O)(=O)N2CCN(S(=O)(=O)c3cccs3)CC2)cc1 | inconclusive: 14.6 µM [activator, partial curve] |
| COc1ccc(NC(=O)Nc2cccs2)cc1Cl | inconclusive: 9.2 µM [activator, partial curve, poor fit] |
| C=CCNC(=O)c1c(Cl)cnn1-c1ccc(C)cc1 | inconclusive: 14.6 µM [activator, partial curve] |
| CN1C(=O)C(CC(=O)NCCc2ccccc2)N(NC(=O)c2ccc(Cl)cc2)C1=S (stereo not drawn) | inactive |
| Cc1nc(NC(=O)c2ccccc2)nc2cc3c(cc12)OCO3 | inconclusive: 10.3 µM [activator, partial curve, poor fit] |
| CCC(=O)c1ccc(OCc2ccc(C#N)cc2)cc1 | inconclusive: 18.3 µM [activator, single point] |
| COc1cccc(NC(=S)NC(=O)/C=C/c2ccco2)c1 | inconclusive: 20.6 µM [activator, partial curve, poor fit] |
| O=C(NCc1cccnc1)C12CC3CC(CC(Cl)(C3)C1)C2 | inconclusive: 25.9 µM [activator, partial curve, poor fit] |
| O=C(CN1CCCC1)Nc1ccccc1Cl | inactive |
| CCCC(=O)NC(=S)Nc1ccc(C(C)=O)cc1 | inconclusive: 23.1 µM [activator, partial curve, poor fit] |
| Cc1ccc(NCC(=O)c2ccccc2)cc1Cl | inactive |
| COC(=O)c1cc2c(=O)c3ccccc3oc2nc1/C=C/N(C)C | inactive |
| Cc1ccc(Cn2cc(-c3ccccc3)nn2)cc1 | inconclusive: 25.9 µM [activator, partial curve, poor fit] |
| O=C(CCNC(=O)C1CCN(S(=O)(=O)c2ccccc2)CC1)NCc1ccc(Cl)c(Cl)c1 | inactive |
| COc1cccc(C(=O)/C=C/Nc2cccc(O)c2)c1 | active: 2.31 µM |
| O=C(NCC1CCCCC1)c1cc(Br)ccc1Cl | inactive |
| Cc1cccc(NC(=O)CCOc2ccccc2)c1 | inconclusive: 20.6 µM [activator, single point] |
| COc1ccc(C(=O)Nc2sc3c(c2C#N)CCN(C(C)=O)C3)cc1 | inconclusive: 29.1 µM [activator, partial curve, poor fit] |
| N/C(=N\OCc1ccc([N+](=O)[O-])cc1)c1ccccn1 | active: 0.082 µM |
| CC(=C/c1ccccc1)/C=N/NC(=O)c1ccccn1 | inconclusive: 1.16 µM [activator, full curve] |
| O=C(NCc1ccc(Cl)cc1)c1cc(=O)[nH]c2ccccc12 | inactive |
| Cc1ccc(-c2nc3ccccc3s2)cc1NC(=S)NC(=O)/C=C/c1ccco1 | inconclusive: 18.4 µM [activator, partial curve, poor fit] |

| SMILES | Potency |
| --- | --- |
| Cc1cc(C(=O)NCCCc2ccccc2)no1 | inconclusive: 16.4 µM [activator, partial curve, poor fit] |
| COCCNC(=O)c1ccc2c3n(nc2c1)-c1ccc(Cl)cc1CO3 | inconclusive: 11.6 µM [activator, partial curve, poor fit] |
| Oc1ccccc1CNc1cnc2ccccc2c1 | inconclusive: 11.6 µM [activator, partial curve, poor fit] |
| CCCn1nnc(NC(=O)c2ccc(-c3ccccc3)cc2)n1 | inconclusive: 3.66 µM [activator, full curve, poor fit] |
| CC(=O)Nc1ccc(S(=O)(=O)NCC(=O)OCc2ccccc2)cc1 | inactive |
| CC(=O)COc1ccc2c(c1C)O/C(=C\c1ccco1)C2=O | inconclusive: 8.2 µM [activator, partial curve, poor fit] |
| Cc1[nH]c(-c2ccccn2)nc(=S)c1Cl | inconclusive: 29.1 µM [activator, single point] |
| N#C/C(C(=O)NCc1ccccc1)=C1/SC(Cc2ccc(Cl)cc2)C(=O)N1c1ccccc1 (stereo not drawn) | inactive |
| O=C(Cc1cccs1)N/N=C/C=C\c1ccccc1[N+](=O)[O-] | inconclusive: 13 µM [activator, partial curve, poor fit] |
| CC1(C)CC(=O)C/C(=N/NC(=O)COc2ccc3ccccc3c2Br)C1 | inactive |
| O=C1/C(=C/c2cccnc2)SC(=S)N1CCc1ccccc1 | inconclusive: 20.6 µM [activator, partial curve, poor fit] |
| COc1ccc(N2C(=S)NC3N2C(=S)NC3(C)c2ccccc2)cc1 (stereo not drawn) | inconclusive: 20.6 µM [activator, single point] |
| O=C1C=C(c2ccc3c(c2)oc2ccccc23)C[C@@H](c2ccc(Cl)cc2)C1 | inactive |
| Cc1ccc(-c2cc3onc(-c4ccccc4)c3c(=O)n2C)cc1 | inconclusive: 0.231 µM [activator, partial curve, poor fit] |
| CSc1ccccc1NC(=O)Nc1cccc(F)c1 | inactive |
| Cc1cc(C)c(N(C(=O)Cn2nnc3ccccc32)C(C(=O)NC(C)(C)C)c2ccsc2)c(C)c1 (stereo not drawn) | inconclusive: 29.1 µM [activator, partial curve, poor fit] |
| COc1ccc(-c2cc(C(=O)NC(C)C)no2)cc1 | active: 6.51 µM |
| CN(C(=O)c1ccccc1)c1nc2ccccc2s1 | inconclusive: 2.31 µM [activator, partial curve] |
| Cc1ccc(S(=O)(=O)N2CCCC(C(=O)NCCc3ccc(S(N)(=O)=O)cc3)C2)cc1 (stereo not drawn) | inactive |
| O=C(Nc1ccccc1Cl)c1ccc2nsnc2c1 | inconclusive: 6.51 µM [activator, partial curve] |
| Oc1c(Cl)cc(Cl)c2cccnc12 | inconclusive: 29.1 µM [activator, single point] |
| Cc1cccc(-n2cnc(C(=O)Nc3cccnc3)c2)n1 | inconclusive: 9.2 µM [activator, partial curve] |
| COc1ccc(C(=O)C[n+]2ccc(N)c(C)c2C)cc1 | inconclusive: 13 µM [activator, partial curve] |
